This is an account of results in PMC12136788.

T1: UNK ZnF1-3 (human, UniProt Q9C0B0 31-174)
T1 sequence: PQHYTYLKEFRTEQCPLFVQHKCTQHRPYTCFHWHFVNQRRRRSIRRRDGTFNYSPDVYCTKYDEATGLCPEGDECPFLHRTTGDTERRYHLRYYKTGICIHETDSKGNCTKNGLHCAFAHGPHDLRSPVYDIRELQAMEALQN

B1: chr1:109605286:109605287:-_ENSG00000197780_ENST00000461096|hu_mus|hu_hu_hu_mus_True|68_98 (ssRNA)
RNA: GGGAGUUCUACAGUCCGACGAUCAAGUUUCAGAGUAUUCAGUGAUCACCUCUUUAAAUGCAAUUAUCCUUACUUUAAGCUAAGCAGAAUAAUAAUUUAAUACCGUAAGUGAACUACACACAAAGCCUGAACCGCGAAAAUGGUCAACAGAGGAUUGAGCAUCA
B2: 2649564_2649684_3676_3pUTR_ENSG00000140992_ENST00000342085|human|control|control (ssRNA)
RNA: GGGAGUUCUACAGUCCGACGAUCAGGGCUAAGAGAGACUCCCCAACACAGCCAAGCCUUUCCAAAAGCCAGGAGGAGGAGAGAGGACUCCGACUCCGGCCACAGGCCCAGGGCAACGUGCUGGGCCCCGGAGCGUCCUGCUCCCAACAGAGGAUUGAGCAUCA
B3: chr1:163117276:163117277:-_ENSG00000143248_ENST00000313961|hu_mus|FALSE|FALSE (ssRNA)
RNA: GGGAGUUCUACAGUCCGACGAUCGUCAAAGCUGCGAGGAGACGGUUCCACCAGGUUCUUCAUGGUGAUGUCUUUAGUGAAGUGGUCAAUGUUCACCUCUUUAGGGGCCUCUGUCUGGAUGAAUUCUUCAUAAAUUUGCUUUGCCAACAGAGGAUUGAGCAUCA
B4: 118502085_118502638_2127_CDS_ENSG00000019144_ENST00000356063|human|control|control (ssRNA)
RNA: GGGAGUUCUACAGUCCGACGAUCAUCUUCGUGCUCCUGCUGGGUGCUCUCAGUGCUGCUGCACUCCUCCUUGAGAUUUUCCUCAUCUGAGCGCUCCAUACUCUCCCAUAGGCGUUGGGUGGCAACGCCAGGCUCCUCGCUGCUCAACAGAGGAUUGAGCAUCA
B5: 112022719_112022839_2602_3pUTR_ENSG00000126016_ENST00000371959|human|control|control (ssRNA)
RNA: GGGAGUUCUACAGUCCGACGAUCCAACUGGAGCAGGAACAGAGAUGGGAGCAACAGCUGCAGUUUUGUUCGAUUCCGUCCCACGUUCAGUUUGGGUACUGCAGUCUCGGCUGCCUGUCUUGGAGUGAGCCGAGAGCAGGGGAGCAACAGAGGAUUGAGCAUCA
B6: 125866897_125867017_1995_CDS_ENSMUSG00000008348_ENSMUST00000136312|mouse|control|control (ssRNA)
RNA: GGGAGUUCUACAGUCCGACGAUCUGCAAAGAUCAGCCUCUGCUGGUCAGGGGGGAUGCCCUCCUUGUCCUGGAUCUUUGCCUUGACAUUCUCUAUGGUGUCACUGGGCUCGACCUCCAGGGUGAUGGUCUUGCCUGUCAGGGUCAACAGAGGAUUGAGCAUCA
B7: chr18:34758715:34758716:-_ENSMUSG00000003778_ENSMUST00000003876|mus_mus|motif|central (ssRNA)
RNA: GGGAGUUCUACAGUCCGACGAUCACUGGUAUGUGUUUCCAUGGGAUUUCUUUCUCCCAGCACUGGCAAUUGACAAGGAAACGGGCCAAAAGCUGUACCAUUAUUCUACCAAAAACAUUCCCAGCCCCAAACAUCACAACCCUCCAACAGAGGAUUGAGCAUCA
B8: chr13:48664549:48664550:-_ENSG00000136146_ENST00000378586|hu_mus|FALSE|FALSE (ssRNA)
RNA: GGGAGUUCUACAGUCCGACGAUCCUGGUUUUCCUCUUCCAGCUGUAAUAGCUUCUGAUUUCUUGAAAUUGCAAGCAUUUCUAUGAGUUCCCUCGACAAGACCUCCAGAUCUUCCAGCGCAGACAGAAGCCGCUCUCGCGUACUCAACAGAGGAUUGAGCAUCA
B9: chr8:97153689:97153690:+_ENSMUSG00000050079_ENSMUST00000060389|mus_hu|motif|central (ssRNA)
RNA: GGGAGUUCUACAGUCCGACGAUCAUCUAGUAACAAUGUUAUAACAGCUGGUCCCAGUGGAUCUUCCAGUGGAAUAACUCGGAUUAAAGACUGGACAACAUCCAACCAUCCUUCAUCUGUUUCUGCCAUUUCGUGUAAUGUUAUCAACAGAGGAUUGAGCAUCA
B10: chr5:60455605:60455606:-_ENSG00000188725_ENST00000339020|hu_hu|motif|central (ssRNA)
RNA: GGGAGUUCUACAGUCCGACGAUCAUUUACAAUAACUGUCAAUAGAAACCUAUAAACUUCUACACCCACGCCUAAAAGUUACGGUAGUAUUGAGGUCAGAACUAACAUGAUUCUUCCAUUUGGUCAAAUUUCAUUUACUAAAUCCAACAGAGGAUUGAGCAUCA
B11: chr17:60770872:60770873:+_ENSG00000011028_ENST00000303375|hu_hu|hu_hu_hu_mus_True|38_48 (ssRNA)
RNA: GGGAGUUCUACAGUCCGACGAUCUCUUUAAAAAAAAAAAAAAAAAGACAAACAAUAAUAGCACAUUUCGAGAAUCAAGAACUACAAAGAAAGGGCCAUGUCUUCGAUUUGUUCACAUCGUCCUGCACUGGGACACGGGGACUGCAACAGAGGAUUGAGCAUCA
B12: 102155536_102155860_195_CDS_ENSMUSG00000059995_ENSMUST00000137387|mouse|control|control (ssRNA)
RNA: GGGAGUUCUACAGUCCGACGAUCGCAAUUGGGGCAAACACACUCCUUGCUCUUCCACUGGUUGAAAACCUGUCCAAAGAUGUCCAACCCAGGCUGGUCCACGAUCUCAAAAUCCUUCAUGCUGUCAGGAUCCGUAUCAUCCAGCAACAGAGGAUUGAGCAUCA
B13: chr3:10015032:10015033:+_ENSMUSG00000027533_ENSMUST00000029046|mus_mus|mus_mus_mus_hu_True|18_58 (ssRNA)
RNA: GGGAGUUCUACAGUCCGACGAUCGUUUUUACCAUCACAAGUGAUGAUACAAUCUGGCUUGGCCAUUGCGCCCAUUUUCCUAAGAGCUAUUCCCACUCCUAGCUCCUUCAUGUAUUCCUCAAAGCCGUUGCUGUCCACCAGGCGCAACAGAGGAUUGAGCAUCA
B14: chr16:94690093:94690094:+_ENSMUSG00000040785_ENSMUST00000117648|mus_hu|mus_mus_mus_hu_True|18_48 (ssRNA)
RNA: GGGAGUUCUACAGUCCGACGAUCGGGCUGGGAUGACGGACACACAGCCUCGAUUCCAGGGGGAAAAAGUCUUAGUCGAUACUAAUUUAAAAAGUAUAAUGAUUUUUGAAAAUCAGAUGUAGAUUAAAAAAGAUGAAAAGCAAACAACAGAGGAUUGAGCAUCA

The list shows a part of the results.

The experiment has as its target T1, UNK ZnF1-3. The experiment in a line: nsRBNS (natural sequence RNA bind-n-seq); RBNS binding buffer (assumed for nsRBNS): 25 mM Tris pH 7.5, 150 mM KCl, 3 mM MgCl2, 0.01% Triton X-100, 500 ug/ml BSA, 20 U/ml SUPERase-In, 4 C; UNK is unkempt and MSI1 is Musashi-1; names of the RNAs are library labels; protein concentration not given here; high values mean tight binding.
Molecule B1 gave a binding signal of 0.976 enrichment R.

In turn, B2 displayed a binding signal of 1.31 enrichment R.

B3: the binding signal came out at 1.15 enrichment R.

B4 returned a binding signal of 0.593 enrichment R.

With B5, the binding signal was determined as 1.31 enrichment R.

B6 displayed a binding signal of 0.337 enrichment R.

The molecule B7 yielded a binding signal of 1.39 enrichment R.

In turn, B8 displayed a binding signal of 0.815 enrichment R.

With B9, the binding signal came out at 0.734 enrichment R.

Molecule B10 had a binding signal of 0.784 enrichment R.

B11 gave a binding signal of 2.95 enrichment R.

B12 gave a binding signal of 0.831 enrichment R.

As for B13, the binding signal stood at 0.529 enrichment R.

Regarding B14, the binding signal worked out at 0.978 enrichment R.
